According to publication PMC4038944:
No constants are given. Whether binding was seen depends on the method and setting. For some assays here: In cells and extracts the contact can be indirect. Some binding calls cover weakened binding; strength is not graded here. For some assays here: Tags and fused reporters may be left off the sequences shown.

Legend:
[1] = biological target: T1, endogenous Cep135 (human (endogenous in HEK 293T)) (UniProt Q66GS9); assay: co-IP; endogenous proteins, HEK 293T cells arrested in S phase; lysates immunoprecipitated with anti-Cep135 or anti-C-Nap1 (pre-immune serum as control), blotted for Cep135 and C-Nap1
T1 sequence: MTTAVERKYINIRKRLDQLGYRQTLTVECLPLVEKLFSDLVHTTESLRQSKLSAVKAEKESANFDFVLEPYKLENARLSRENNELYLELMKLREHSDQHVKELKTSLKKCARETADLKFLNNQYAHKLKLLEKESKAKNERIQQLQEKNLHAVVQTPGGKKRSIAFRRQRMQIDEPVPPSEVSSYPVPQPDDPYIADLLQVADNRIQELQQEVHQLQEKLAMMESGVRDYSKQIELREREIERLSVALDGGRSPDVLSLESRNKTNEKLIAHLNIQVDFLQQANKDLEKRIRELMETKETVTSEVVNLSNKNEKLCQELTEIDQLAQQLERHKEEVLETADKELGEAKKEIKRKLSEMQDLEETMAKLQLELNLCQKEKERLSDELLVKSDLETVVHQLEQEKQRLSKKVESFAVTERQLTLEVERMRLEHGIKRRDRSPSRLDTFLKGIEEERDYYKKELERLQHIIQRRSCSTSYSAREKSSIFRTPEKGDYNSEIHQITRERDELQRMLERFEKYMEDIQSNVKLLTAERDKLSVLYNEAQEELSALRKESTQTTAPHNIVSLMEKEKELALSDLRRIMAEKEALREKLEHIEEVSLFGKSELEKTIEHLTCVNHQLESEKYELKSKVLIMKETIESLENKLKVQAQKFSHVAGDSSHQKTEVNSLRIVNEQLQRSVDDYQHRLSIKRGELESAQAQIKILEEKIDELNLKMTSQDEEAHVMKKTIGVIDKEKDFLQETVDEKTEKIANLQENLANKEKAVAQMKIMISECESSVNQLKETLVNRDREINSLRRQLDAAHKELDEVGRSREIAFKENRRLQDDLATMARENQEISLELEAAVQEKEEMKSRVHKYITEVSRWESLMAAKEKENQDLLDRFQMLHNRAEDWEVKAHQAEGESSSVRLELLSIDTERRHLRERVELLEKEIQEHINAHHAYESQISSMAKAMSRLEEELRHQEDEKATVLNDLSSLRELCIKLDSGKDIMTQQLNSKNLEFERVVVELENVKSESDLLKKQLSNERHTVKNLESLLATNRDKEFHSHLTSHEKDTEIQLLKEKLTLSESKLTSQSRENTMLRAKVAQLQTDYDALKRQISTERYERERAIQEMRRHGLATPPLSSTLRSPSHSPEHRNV

[2] = biological target: T1, endogenous Cep135 (human (endogenous in HEK 293T)); assay: condition: only cells arrested in M phase with nocodazole or STLC; co-IP; endogenous proteins, HEK 293T cells arrested in M phase with nocodazole or STLC; lysates immunoprecipitated with anti-Cep135 or anti-C-Nap1 (pre-immune serum as control), blotted for Cep135 and C-Nap1
[3] = biological target: T2, C-Nap1 fragment E (2362–2442), GAL4 two-hybrid fusion (UniProt Q9BV73); assay: two-hybrid; GAL4-AD (pACTII) and GAL4-DBD (pGBDU) fusions in S. cerevisiae PJ69-4A; beta-galactosidase activity relative to the Nek2A homodimer (assigned 1)
T2 sequence: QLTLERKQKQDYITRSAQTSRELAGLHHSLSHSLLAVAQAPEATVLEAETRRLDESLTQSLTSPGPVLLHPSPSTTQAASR

[4] = biological target: Nek2A, GAL4 two-hybrid fusion (human) (UniProt P51955); assay: as above
[5] = biological target: T3, Myc–C-Nap1-CTD (UniProt Q9BV73); assay: co-IP; HA-Cep135-CTD co-transfected with Myc-C-Nap1-CTD constructs into U2OS cells; lysates immunoprecipitated with anti-Myc (or anti-HA, panel A), blotted with anti-C-Nap1, anti-Myc or anti-HA
T3 sequence: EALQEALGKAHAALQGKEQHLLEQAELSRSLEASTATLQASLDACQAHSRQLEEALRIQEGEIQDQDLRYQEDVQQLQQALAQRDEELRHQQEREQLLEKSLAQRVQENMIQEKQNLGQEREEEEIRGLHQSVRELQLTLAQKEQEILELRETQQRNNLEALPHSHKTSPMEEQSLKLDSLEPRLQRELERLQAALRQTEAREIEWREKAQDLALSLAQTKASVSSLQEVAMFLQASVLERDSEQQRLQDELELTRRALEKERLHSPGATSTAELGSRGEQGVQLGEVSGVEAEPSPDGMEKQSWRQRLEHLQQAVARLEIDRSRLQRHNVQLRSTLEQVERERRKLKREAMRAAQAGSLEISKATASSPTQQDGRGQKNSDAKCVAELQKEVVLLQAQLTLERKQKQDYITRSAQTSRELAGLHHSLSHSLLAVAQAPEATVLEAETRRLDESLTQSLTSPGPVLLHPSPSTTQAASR

[6] = biological target: endogenous C-Nap1 (human (endogenous in HEK 293T)) (UniProt Q9BV73); assay: co-IP; endogenous proteins, HEK 293T cells arrested in S phase; lysates immunoprecipitated with anti-Cep135 or anti-C-Nap1 (pre-immune serum as control), blotted for Cep135 and C-Nap1
[7] = biological target: endogenous C-Nap1 (human (endogenous in HEK 293T)) (UniProt Q9BV73); assay: condition: only cells arrested in M phase with nocodazole or STLC; co-IP; endogenous proteins, HEK 293T cells arrested in M phase with nocodazole or STLC; lysates immunoprecipitated with anti-Cep135 or anti-C-Nap1 (pre-immune serum as control), blotted for Cep135 and C-Nap1
[8] = biological target: T3, Myc–C-Nap1-CTD; assay: co-IP; GFP-tagged protein coexpressed with Myc-tagged CTD constructs in U2OS cells for 24 hours; lysates immunoprecipitated with anti-Myc, blotted with anti-Myc and anti-GFP

endogenous C-Nap1 (from UniProt Q9BV73 1-2442)
binding [1]: binds | binding [2]: no binding

B1: Nek2A, GAL4 two-hybrid fusion (enzyme, UniProt P51955 1-445)
chain: MPSRAEDYEVLYTIGTGSYGRCQKIRRKSDGKILVWKELDYGSMTEAEKQMLVSEVNLLRELKHPNIVRYYDRIIDRTNTTLYIVMEYCEGGDLASVITKGTKERQYLDEEFVLRVMTQLTLALKECHRRSDGGHTVLHRDLKPANVFLDGKQNVKLGDFGLARILNHDTSFAKTFVGTPYYMSPEQMNRMSYNEKSDIWSLGCLLYELCALMPPFTAFSQKELAGKIREGKFRRIPYRYSDELNEIITRMLNLKDYHRPSVEEILENPLIADLVADEQRRNLERRGRQLGEPEKSQDSSPVLSELKLKEIQLQERERALKAREERLEQKEQELCVRERLAEDKLARAENLLKNYSLLKERKFLSLASNPELLNLPSSVIKKKVHFSGESKENIMRSENSESQLTSKSKCKDLKKRLHAAQLRAQALSDIEKNYQLKSRQILGMR
binding [3]: binds | binding [4]: binds

B2: HA–Cep135-CTD (648–1141) (domain or fragment, UniProt Q66GS9 648-1140)
chain: QAQKFSHVAGDSSHQKTEVNSLRIVNEQLQRSVDDYQHRLSIKRGELESAQAQIKILEEKIDELNLKMTSQDEEAHVMKKTIGVIDKEKDFLQETVDEKTEKIANLQENLANKEKAVAQMKIMISECESSVNQLKETLVNRDREINSLRRQLDAAHKELDEVGRSREIAFKENRRLQDDLATMARENQEISLELEAAVQEKEEMKSRVHKYITEVSRWESLMAAKEKENQDLLDRFQMLHNRAEDWEVKAHQAEGESSSVRLELLSIDTERRHLRERVELLEKEIQEHINAHHAYESQISSMAKAMSRLEEELRHQEDEKATVLNDLSSLRELCIKLDSGKDIMTQQLNSKNLEFERVVVELENVKSESDLLKKQLSNERHTVKNLESLLATNRDKEFHSHLTSHEKDTEIQLLKEKLTLSESKLTSQSRENTMLRAKVAQLQTDYDALKRQISTERYERERAIQEMRRHGLATPPLSSTLRSPSHSPEHRNV
binding [5]: binds

B3: endogenous Cep135 (protein, UniProt Q66GS9 1-1140)
chain: MTTAVERKYINIRKRLDQLGYRQTLTVECLPLVEKLFSDLVHTTESLRQSKLSAVKAEKESANFDFVLEPYKLENARLSRENNELYLELMKLREHSDQHVKELKTSLKKCARETADLKFLNNQYAHKLKLLEKESKAKNERIQQLQEKNLHAVVQTPGGKKRSIAFRRQRMQIDEPVPPSEVSSYPVPQPDDPYIADLLQVADNRIQELQQEVHQLQEKLAMMESGVRDYSKQIELREREIERLSVALDGGRSPDVLSLESRNKTNEKLIAHLNIQVDFLQQANKDLEKRIRELMETKETVTSEVVNLSNKNEKLCQELTEIDQLAQQLERHKEEVLETADKELGEAKKEIKRKLSEMQDLEETMAKLQLELNLCQKEKERLSDELLVKSDLETVVHQLEQEKQRLSKKVESFAVTERQLTLEVERMRLEHGIKRRDRSPSRLDTFLKGIEEERDYYKKELERLQHIIQRRSCSTSYSAREKSSIFRTPEKGDYNSEIHQITRERDELQRMLERFEKYMEDIQSNVKLLTAERDKLSVLYNEAQEELSALRKESTQTTAPHNIVSLMEKEKELALSDLRRIMAEKEALREKLEHIEEVSLFGKSELEKTIEHLTCVNHQLESEKYELKSKVLIMKETIESLENKLKVQAQKFSHVAGDSSHQKTEVNSLRIVNEQLQRSVDDYQHRLSIKRGELESAQAQIKILEEKIDELNLKMTSQDEEAHVMKKTIGVIDKEKDFLQETVDEKTEKIANLQENLANKEKAVAQMKIMISECESSVNQLKETLVNRDREINSLRRQLDAAHKELDEVGRSREIAFKENRRLQDDLATMARENQEISLELEAAVQEKEEMKSRVHKYITEVSRWESLMAAKEKENQDLLDRFQMLHNRAEDWEVKAHQAEGESSSVRLELLSIDTERRHLRERVELLEKEIQEHINAHHAYESQISSMAKAMSRLEEELRHQEDEKATVLNDLSSLRELCIKLDSGKDIMTQQLNSKNLEFERVVVELENVKSESDLLKKQLSNERHTVKNLESLLATNRDKEFHSHLTSHEKDTEIQLLKEKLTLSESKLTSQSRENTMLRAKVAQLQTDYDALKRQISTERYERERAIQEMRRHGLATPPLSSTLRSPSHSPEHRNV
binding [6]: binds | binding [7]: no binding

B4: GFP–Nek2A (enzyme, UniProt P51955 1-445)
chain: MPSRAEDYEVLYTIGTGSYGRCQKIRRKSDGKILVWKELDYGSMTEAEKQMLVSEVNLLRELKHPNIVRYYDRIIDRTNTTLYIVMEYCEGGDLASVITKGTKERQYLDEEFVLRVMTQLTLALKECHRRSDGGHTVLHRDLKPANVFLDGKQNVKLGDFGLARILNHDTSFAKTFVGTPYYMSPEQMNRMSYNEKSDIWSLGCLLYELCALMPPFTAFSQKELAGKIREGKFRRIPYRYSDELNEIITRMLNLKDYHRPSVEEILENPLIADLVADEQRRNLERRGRQLGEPEKSQDSSPVLSELKLKEIQLQERERALKAREERLEQKEQELCVRERLAEDKLARAENLLKNYSLLKERKFLSLASNPELLNLPSSVIKKKVHFSGESKENIMRSENSESQLTSKSKCKDLKKRLHAAQLRAQALSDIEKNYQLKSRQILGMR
binding [8]: binds
